According to the supplement of paper PMC11369174, “Proteome-scale characterisation of motif-based interactome rewiring by disease mutations” (Molecular Systems Biology, 2024):
Some of the results follow. Single values of this set are uncertain.

Experiments:
Assay in all cases: mutation enrichment score (mutant vs wild-type peptide binding to bait); baits are purified protein domains named by gene / domain / UniProt id / residues; peptides come from disordered regions of human proteins; higher = mutation enhances binding relative to wild type
[1] = biological target: MAP1LC3A_ATG8__Q9H492_2_121; details: wild-type window: …
[2] = biological target: MAP1LC3B_ATG8__Q9GZQ8_2_119; details: wild-type window: …
[3] = biological target: Keap1_KELCH__Q14145_321_609; details: number of wild-type / mutant comparisons summed (bounds the score): 18, wild-type window: …
[4] = biological target: T1, PEX14_Pex14__O75381_16_84; details: number of wild-type / mutant comparisons summed (bounds the score): 6; paper call: no_effect; wild-type window: …
T1 chain: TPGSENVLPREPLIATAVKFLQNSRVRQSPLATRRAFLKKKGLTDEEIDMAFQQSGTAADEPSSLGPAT

[5] = biological target: T2, SIN3A_PAH__Q96ST3_295_383; details: number of wild-type / mutant comparisons summed (bounds the score): 5; paper call: no_effect; wild-type window: …
T2 chain: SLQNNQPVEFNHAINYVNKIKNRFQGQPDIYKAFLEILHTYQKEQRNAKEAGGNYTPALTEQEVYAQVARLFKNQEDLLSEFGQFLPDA

SPOP_MATH__O43791_19_176 = biological target: T3, SPOP_MATH__O43791_19_176; details: number of wild-type / mutant comparisons summed (bounds the score): 6; paper call: no_effect; wild-type window: …
T3 chain: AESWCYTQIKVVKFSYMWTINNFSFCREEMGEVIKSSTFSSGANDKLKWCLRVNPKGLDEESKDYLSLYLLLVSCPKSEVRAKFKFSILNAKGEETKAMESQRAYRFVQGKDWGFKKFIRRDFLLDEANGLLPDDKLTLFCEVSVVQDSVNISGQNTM

[6] = number of wild-type / mutant comparisons summed (bounds the score): 6, paper call: no_effect
[7] = number of wild-type / mutant comparisons summed (bounds the score): 12, paper call: enhanced
[8] = number of wild-type / mutant comparisons summed (bounds the score): 6, paper call: diminished
[9] = number of wild-type / mutant comparisons summed (bounds the score): 12, paper call: no_effect

Keap1_KELCH__Q14145_321_609, sequence (chain, as listed by the source): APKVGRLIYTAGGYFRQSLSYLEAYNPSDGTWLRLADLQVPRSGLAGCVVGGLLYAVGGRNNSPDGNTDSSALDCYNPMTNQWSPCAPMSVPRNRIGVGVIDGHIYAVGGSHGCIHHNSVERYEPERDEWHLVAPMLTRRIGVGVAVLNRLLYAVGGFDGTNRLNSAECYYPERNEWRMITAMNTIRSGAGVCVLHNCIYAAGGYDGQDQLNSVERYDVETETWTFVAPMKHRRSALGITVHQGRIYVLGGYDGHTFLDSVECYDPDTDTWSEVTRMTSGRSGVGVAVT

Binder: DRVFSSPRGVAAKGKGSPQAPTVRRSPSADQSLEDSPSKVP [Q461P Q461P]
- mutation enrichment score [1, 6]: -2

Binder: DTLVVLHRAGARLDVRDAWGHLPVDLAEELGHRDVARYLRA [R112H R112H]
- mutation enrichment score ([1]; number of wild-type / mutant comparisons summed (bounds the score): 6, paper call: enhanced): 6

Binder: DTLVVLHRAGARLDVRDAWGSLPVDLAEELGHRDVARYLRA [R112S R112S]
- mutation enrichment score [1, 6]: 2

Binder: SLERERCDGGLPGNTHLLPLHATDFEVLSTKFEMQDLCFLG [R3014H R3014H]
- mutation enrichment score [1, 6]: 0.74
- mutation enrichment score [2, 7]: 10

Binder: QEQLQKEQEKAFFAQLQLDEGTGEFLPIQPAQHIQSETSGS [E79G E79G]
- mutation enrichment score ([3]; paper call: diminished): -11

Binder: QEQLQKEQEKAFFAQLQLDEDTGEFLPIQPAQHIQSETSGS [E79D E79D]
- mutation enrichment score ([3]; paper call: no_effect): -3.4

Binder: QEQLQKEQEKAFFAQLQLDEQTGEFLPIQPAQHIQSETSGS [E79Q E79Q]
- mutation enrichment score ([3]; paper call: diminished): -11

Binder: QEQLQKEQEKAFFAQLQLDEVTGEFLPIQPAQHIQSETSGS [E79V E79V]
- mutation enrichment score ([3]; paper call: diminished): -11

Binder: QEQLQKEQEKAFFAQLQLDEKTGEFLPIQPAQHIQSETSGS [E79K E79K]
- mutation enrichment score ([3]; paper call: diminished): -11

Binder: QLQKEQEKAFFAQLQLDEETSEFLPIQPAQHIQSETSGSAN [G81S G81S]
- mutation enrichment score ([3]; paper call: diminished): -11

Binder: QLQKEQEKAFFAQLQLDEETVEFLPIQPAQHIQSETSGSAN [G81V G81V]
- mutation enrichment score ([3]; paper call: diminished): -11

Binder: SAQKITKSVKAPTVKPSETRLRAEPTPLPQFPFADTPDTYK [V871L V871L]
- mutation enrichment score [1, 6]: -2

Binder: TMKEELDFQKNIYSEELRETRRRHETRLVEIDNGKQREFES [K219R K219R]
- mutation enrichment score [1, 6]: 2

Binder: EGFLDTLVVLHRAGARLDVRNAWGRLPVDLAEELGHRDVAR [D108N D108N]
- mutation enrichment score [1, 6]: 0

Binder: HRAGARLDVRDAWGRLPVDLTEELGHRDVARYLRAAAGGTR [A118T A118T]
- mutation enrichment score [1, 6]: 4

Binder: PRLLQVLKQTRDLETKKQITHHTVNLRSRNGWPGAVAHACN [D460H D460H]
- mutation enrichment score [1, 6]: 2

Binder: NNQFASFIDKVRFLEQQNQVPQTKWELLQQVDTSTRTHNLE [L208P L208P]
- mutation enrichment score [1, 6]: -4

Binder: NNQFASFIDKVRFLEQQNQVRQTKWELLQQVDTSTRTHNLE [L208R L208R]
- mutation enrichment score [1, 6]: -4

Binder: LQKEQEKAFFAQLQLDEETGDFLPIQPAQHIQSETSGSANY [E82D E82D]
- mutation enrichment score ([3]; paper call: diminished): -11

Binder: LQKEQEKAFFAQLQLDEETGQFLPIQPAQHIQSETSGSANY [E82Q E82Q]
- mutation enrichment score ([3]; paper call: diminished): -8.1

Binder: LQKEQEKAFFAQLQLDEETGVFLPIQPAQHIQSETSGSANY [E82V E82V]
- mutation enrichment score ([3]; paper call: diminished): -11

Binder: GGGQHGLFGPGAGGLHHAHSFAQGHLLFPGLPEQHGPHGSQ [D152F D152F]
- mutation enrichment score [1, 6]: -2

Binder: SSHGPSDPTDRAEVEKDSGHDSTSVDSEGFSIPDTGSHCSS [G497D G497D]
- mutation enrichment score [1, 6]: 2

Binder: WDGFPLHYSERHGWGYLVPGWRDNLAKLPTGTTLESAGVVC [R627W R627W]
- mutation enrichment score [1, 6]: 4
- mutation enrichment score [2, 6]: 4

Binder: LVVLHRAGARLDVRDAWGRLLVDLAEELGHRDVARYLRAAA [P114L P114L]
- mutation enrichment score [1, 6]: 1

Binder: EVDAQGEEMKEEFETYADALSWGLITLATIGYGDKTPKTWE [W308S W308S]
- mutation enrichment score [1, 6]: 5

Binder: GGVPEQEDSVLFRRGTGQSDNSDIWDDTALIKAYDKAVASF [D30N D30N]
- mutation enrichment score [1, 6]: 2
- mutation enrichment score [4]: -1

Binder: EQPNEQHPVSLAPLDESNSYKHLTLSDKEVQMHFAELQEKF [E1391K E1391K]
- mutation enrichment score [1, 8]: -6
- mutation enrichment score ([2]; number of wild-type / mutant comparisons summed (bounds the score): 18, paper call: diminished): -9

Binder: ERQEQLQKEQEKAFFAQLQLGEETGEFLPIQPAQHIQSETS [D77G D77G]
- mutation enrichment score ([3]; paper call: diminished): -7.1

Binder: ERQEQLQKEQEKAFFAQLQLYEETGEFLPIQPAQHIQSETS [D77Y D77Y]
- mutation enrichment score ([3]; paper call: diminished): -7.1

Binder: SLLKPPVVKWFKGKWVDLSSQVGQHLQLHDSYDRASKVYLF [K202Q K202Q]
- mutation enrichment score [1, 6]: -2.9
- mutation enrichment score [2, 6]: 4

Binder: CKDPFDKPSQPGELEILSISEDSVTLQWEKPECDGGKEILG [K31371E K31371E]
- mutation enrichment score [1, 6]: -4

Binder: QDGLYIGVSLASPAEVTSSVLPDSWCALALA [R585L R585L]
- mutation enrichment score [1, 7]: 8
- mutation enrichment score [5]: -3
- mutation enrichment score (SPOP_MATH__O43791_19_176): 4.5

Binder: EQLQKEQEKAFFAQLQLDEEAGEFLPIQPAQHIQSETSGSA [T80A T80A]
- mutation enrichment score ([3]; paper call: diminished): -11

Binder: EQLQKEQEKAFFAQLQLDEEKGEFLPIQPAQHIQSETSGSA [T80K T80K]
- mutation enrichment score ([3]; paper call: diminished): -11

Binder: EQLQKEQEKAFFAQLQLDEEIGEFLPIQPAQHIQSETSGSA [T80I T80I]
- mutation enrichment score ([3]; paper call: diminished): -11

Binder: VVKWFKGKWVDLSSKVGQHLHLHDSYDRASKVYLFELHITD [Q208H Q208H]
- mutation enrichment score [1, 8]: -6

Binder: ARLDVRDAWGRLPVDLAEELSHRDVARYLRAAAGGTRGSNH [G122S G122S]
- mutation enrichment score [1, 6]: 1

Binder: VEFTVHVALAFLTAIGDKNRWAVLALEHMFAPVLDGAVSTL [R1114W R1114W]
- mutation enrichment score [1, 7]: 7
- mutation enrichment score [2, 9]: 5

Binder: SFANYLVGTLIPPSEDKASKVFFSYRADIFVQNLVPDWRGP [G316V G316V]
- mutation enrichment score [1, 6]: 3
- mutation enrichment score [4]: 2

Binder: EEMDFRSGSPSDNSGAEEMEMSLAKPKHRVTMNEFEYLKLL [V136M V136M]
- mutation enrichment score [1, 6]: 2

Binder: LHRAGARLDVRDAWGRLPVDMAEELGHRDVARYLRAAAGGT [L117M L117M]
- mutation enrichment score [1, 6]: 1

Binder: GHSKILGETSLMRTLCGTPTCLAPEVLVSVGTAGYNRAVDC [Y390C Y390C]
- mutation enrichment score [1, 9]: -3

Binder: GHSKILGETSLMRTLCGTPTFLAPEVLVSVGTAGYNRAVDC [Y390F Y390F]
- mutation enrichment score [1, 9]: -3
